Measurements from PubChem BioAssay (NCATS).
Where “and” joins values, the source holds several entries; their conditions need not be identical. Identical values can stand only once. The inconclusive results got no clear call from the source; some entries with a clear call stand among them for comparison. A potency beside an inconclusive call is a rough fit, not a confirmed value. Calls of active or inactive are those of the source. The call rests on the fitted dose curve; in most records, active means well fitted cell-killing curve with a large enough effect; inconclusive means small, poorly fitted or top-dose-only effect, or effect the other way; inactive means no such curve, though single readings can be large or run the other way.

Experiments:
[1] = Viability qHTS for spleen associated tyrosine kinase inhibitor (SYKi) naive MV4-11 cells (AID 1963823); settings: MV4-11 AML viability, CellTiter-Glo luminescence, 72 h; viability (% of control): at 45 µM (top of the series); further: nearly all actives have a fitted effect of over 40% in size
How it was run: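 Viability of MV4-11 AML cells lacking prior SYK inhibitor exposure is scored by CellTiter-Glo luminescence following 72 hr compound incubation at 37 C, 5% CO2, seeded at 500 cells per well.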

[2] = Viability qHTS for spleen associated tyrosine kinase inhibitor (SYKi) drug resistant MV4-11 cells (AID 1963824); settings: SYKi-resistant MV4-11 viability, CellTiter-Glo, 72 h; series mostly up to 45 µM; further: nearly all actives have a fitted effect of over 35% in size
How it was run: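 CellTiter-Glo luminescence, read 10 min after reagent addition, reports viability after a 72 hr compound exposure. Cells are an MV4-11 line made resistant to SYK inhibition, seeded at 500 per well onto compound-containing plates.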
Potency means the concentration at half of the fitted maximal effect; tags describe the fitted curve by direction and shape.

C=C1C[C@]23C[C@H]1CC[C@H]2[C@]1(C)CCC[C@@](C)(C(=O)O)[C@H]1[C@@H]3C(=O)O
Potency [1]: inactive | Potency [2]: inconclusive: 11.4 µM [cytotoxic, single point]

Cc1ccc(C(=O)C(=O)O)cc1C
Potency [1]: inactive | Potency [2]: inactive

O=C(/C=C/c1ccccc1O)O[C@@H]1O[C@H](CO)[C@@H](O)[C@H](O)[C@H]1O
Potency [1]: inactive | Potency [2]: inactive

CCOC(=O)c1ccc(OCCC2CCN(c3ccc(C)nn3)CC2)cc1
Potency [1]: inactive | Potency [2]: inconclusive: 32.6 µM [cytotoxic, partial curve, poor fit]

CO[C@H]1[C@@H](O)[C@H](O[C@H]2CC[C@@]3(C)C(CCC4C3CC[C@]35COC6(COC(=O)C6)C3CCC45O)C2)O[C@@H](C)[C@@H]1OC1OC(CO)C(OC2OC(CO)C(O)C(O)C2O)C(O)C1O (some centres undefined)
Potency [1]: active: 1.23 µM | Potency [2]: active: 1.1 µM

O=C(CCOCCOCCOCCOCCC(=O)Nc1c(I)cc(I)c(C(=O)O)c1I)Nc1c(I)cc(I)c(C(=O)O)c1I
Potency [1]: inactive | Potency [2]: inactive

CC(=O)N[C@H]1[C@H](O[C@H]2CC[C@@]3(C)C(CC[C@]4(C)C3CC=C3C5CC(C)(C)CC[C@]5(C(=O)O)[C@H](O[C@@H]5O[C@H](CO)[C@@H](O)[C@H](O)[C@H]5O)C[C@]34C)C2(C)C)O[C@H](CO[C@@H]2OC[C@H](O)[C@H](O)[C@H]2O[C@@H]2OC[C@@H](O)[C@H](O)[C@H]2O)[C@@H](O)[C@@H]1O (some centres undefined)
viability (% of control) [1]: inactive: 57% [at 9.25 µM] | viability, % of control [2]: inactive: 81.4% [at 9.25 µM]

CCCC1(c2ccccc2)NC(=O)N(CC(=O)N(C)Cc2c(F)cccc2Cl)C1=O (centres undefined)
Potency [1]: inconclusive: 0.0046 µM [rising, full curve, poor fit] | Potency [2]: inconclusive: 0.0046 µM [rising, full curve]

COC(=O)C(CC1CCCC1)c1ccc(S(C)(=O)=O)cc1 (centres undefined)
Potency [1]: inactive | Potency [2]: inconclusive: 13 µM [cytotoxic, partial curve, poor fit]

Cn1c(CNc2cccc(C(=O)NCc3ccccc3C(F)(F)F)c2)nnc1-c1ccncc1
Potency [1]: inconclusive: 2.59 µM [cytotoxic, partial curve, poor fit] | Potency [2]: inconclusive: 4.11 µM [cytotoxic, single point]

O=C(COc1ccc2ccccc2c1Br)Nc1cccnc1
Potency [1]: inconclusive: 18.4 µM [cytotoxic, single point] | Potency [2]: inconclusive: 18.4 µM [cytotoxic, single point]

COC1CC(OC2CCC3(C)C(=CCC4C3CCC3(C)C(C(C)O)CCC43O)C2)OC(C)C1OC1OC(C)C(OC2OC(COC3OC(COC4OC(CO)C(O)C(O)C4O)C(O)C(O)C3O)C(O)C(O)C2O)C(OC)C1O (centres undefined)
Potency [1]: inconclusive: 0.0618 µM [rising, partial curve, poor fit] | viability, % of control [2]: inactive: 97.1% [at 9.25 µM]

COc1c2ccoc2nc2c(OC)c(O[C@@H]3O[C@@H](C)[C@H](O)[C@@H](O[C@@H]4O[C@H](CO)[C@@H](O)[C@H](O)[C@H]4O)[C@H]3OC(C)=O)ccc12
Potency [1]: inactive | Potency [2]: inactive

CN1CCCC1Cc1c[nH]c2ccc(CCS(=O)(=O)c3ccccc3)cc12 (centres undefined)
Potency [1]: inconclusive: 18.4 µM [cytotoxic, partial curve, poor fit] | Potency [2]: inconclusive: 13 µM [cytotoxic, partial curve, poor fit]

O=C(O)c1ccc(CN2CCC(CN[C@@H]3C[C@H]3c3ccccc3)CC2)cc1
Potency [1]: inconclusive: 0.0148 µM [cytotoxic, full curve, poor fit] | Potency [2]: inconclusive: 116 nM [cytotoxic, full curve, poor fit] and inconclusive: 2.63 µM [cytotoxic, partial curve]

C[C@H]1CC[C@@]2(OC1)O[C@H]1CC3C4CC=C5C[C@H](O)C[C@@H](O[C@@H]6O[C@@H](C)[C@H](O)[C@@H](O)[C@H]6O[C@@H]6O[C@@H](C)[C@H](O)[C@@H](O)[C@H]6O)[C@]5(C)C4CC[C@]3(C)[C@H]1[C@@H]2C (some centres undefined)
Potency [1]: inconclusive: 2.17 µM [cytotoxic, partial curve, poor fit] | Potency [2]: inconclusive: 2.43 µM [cytotoxic, partial curve, poor fit]

COc1ccc(CNC(=O)c2sc3nc(C)cc(C)c3c2N)cc1
Potency [1]: inactive | Potency [2]: inconclusive: 23.1 µM [cytotoxic, partial curve, poor fit]

C/C=C/c1ccc2c(c1)[C@@H](C)[C@H](c1ccc(O)cc1)O2
Potency [1]: inconclusive: 0.0103 µM [rising, full curve, poor fit] | Potency [2]: inconclusive: 0.0046 µM [rising, full curve, poor fit]

CN(C)CCCCC(=O)Nc1ccc(NC(=S)NC(=O)c2ccc(C(C)(C)C)cc2)cc1
Potency [1]: active: 1.3 µM | Potency [2]: active: 1.46 µM

COc1cn(-c2ccc(-n3cccn3)cc2F)nc(-c2ccnn2-c2ccccc2)c1=O
Potency [1]: inconclusive: 4.61 µM [cytotoxic, partial curve, poor fit] | Potency [2]: inactive

C=C(C)[C@@H]1CC[C@](C)(O)[C@@H](OC(=O)c2ccccc2)C1
Potency [1]: inconclusive: 14.6 µM [cytotoxic, partial curve, poor fit] | Potency [2]: inconclusive: 14.6 µM [cytotoxic, single point]

Cc1c(C)c(NCC(=O)N(C)C2CCN(Cc3ccc(C(N)=O)cc3)CC2)c(C)c(C)c1N
Potency [1]: inconclusive: 18.4 µM [cytotoxic, partial curve] | Potency [2]: inconclusive: 18.4 µM [cytotoxic, partial curve, poor fit]

CC1(C)CC[C@]2(C(=O)O[C@@H]3O[C@H](CO)[C@@H](O)[C@H](O)[C@H]3O)CC[C@]3(C)C(=CCC4[C@@]5(C)C[C@@H](O)[C@H](O)[C@@](C)(CO)C5[C@H](O)C[C@]43C)C2C1 (some centres undefined)
Potency [1]: inconclusive: 0.968 µM [rising, partial curve, poor fit] | Potency [2]: inactive

CC(C)C(CO)Nc1nc(Nc2ccc(C(=O)O)c(Cl)c2)c2ncn(C(C)C)c2n1 (centres undefined)
Potency [1]: inconclusive: 2.59 µM [cytotoxic, full curve] | Potency [2]: inconclusive: 1.64 µM [cytotoxic, full curve]

CN(C)CC#CCCC(=O)C(O)(c1ccccc1)C1CCC1 (centres undefined)
Potency [1]: inconclusive: 16.4 µM [cytotoxic, partial curve, poor fit] | Potency [2]: inconclusive: 20.6 µM [cytotoxic, partial curve]

COCCNc1cc(NC(=O)N2CCCc3cc(CN4CCN(C)CC4=O)c(C=O)nc32)ncc1C#N
Potency [1]: inconclusive: 6.79 µM [cytotoxic, single point] | Potency [2]: inconclusive: 6.05 µM [cytotoxic, single point]

CC1(C)CC[C@]2(C(=O)O)CC[C@]3(C)C(=CCC4[C@@]5(C)C(=O)C[C@H](O)[C@@](C)(CO)C5CC[C@]43C)[C@@H]2C1 (some centres undefined)
Potency [1]: inconclusive: 10 µM [cytotoxic, single point] | Potency [2]: inactive

O=C(CSc1nc2ccccc2c(=O)n1-c1ccccc1)Nc1ccc2c(c1)CCC2
Potency [1]: inconclusive: 5.8 µM [cytotoxic, partial curve] | Potency [2]: inconclusive: 25.9 µM [cytotoxic, partial curve]

O=C(/C=C/c1ccc(O)cc1)O[C@H]1[C@H](OC2CCCCC2O)O[C@H](CO)[C@@H](O)[C@@H]1O (some centres undefined)
Potency [1]: inactive | Potency [2]: inactive

CS/C=C/C(=O)O[C@@H]1CCC2=CC(=O)C(=C(C)C)C[C@]2(C)[C@H]1C
Potency [1]: inconclusive: 8.05 µM [cytotoxic, partial curve] | Potency [2]: inconclusive: 11.4 µM [cytotoxic, partial curve]

COc1ccc(C(=O)O[C@H]2CC(C)=CC[C@@]3(C)[C@@H](OC(C)=O)C[C@@](O)(C(C)C)[C@H]23)cc1
Potency [1]: inconclusive: 10 µM [cytotoxic, single point] | Potency [2]: inconclusive: 7.96 µM [cytotoxic, single point]

O=C(O[C@H]1[C@@H]2C=CO[C@@H](O[C@@H]3O[C@H](CO)[C@@H](O)[C@H](O)[C@H]3O)[C@@H]2[C@@]2(CO)O[C@@H]12)c1ccccc1
Potency [1]: inactive | Potency [2]: inactive

C[C@](N)(Cc1ccc(O)cc1)C(=O)O
viability (% of control) [1]: inactive: 79.1% [at 4.97 µM] | viability, % of control [2]: inactive: 90.5% [at 4.97 µM]

C=C1CCC2C(C)(C)CC(O)CC2(C)C1CCC(C)CCOC(=O)CCC(=O)O (centres undefined)
Potency [1]: inconclusive: 14.2 µM [cytotoxic, single point] | Potency [2]: inconclusive: 14.2 µM [cytotoxic, single point]

CC(/C=C/C=C(\C)C(=O)O[C@@H]1O[C@H](CO[C@@H]2O[C@H](CO)[C@@H](O)[C@H](O)[C@H]2O)[C@@H](O)[C@H](O)[C@H]1O)=C\C=C\C=C(C)\C=C\C=C(/C)C(=O)O[C@@H]1C[C@](O)(C(=O)O)C[C@@H](O)[C@H]1OC(=O)/C=C/c1ccc(O)c(O)c1
viability (% of control) [1]: inactive: 78.4% [at 9.25 µM] | viability, % of control [2]: inactive: 91.1% [at 9.25 µM]

CC1(CO)CC(O)[C@]2(C(=O)O)CCC34CC3(C=CC3[C@]5(C)C(CC[C@]34C)C(C)(CO)[C@@H](O)[C@H](O)[C@@H]5O)C2C1 (some centres undefined)
Potency [1]: inconclusive: 14.2 µM [cytotoxic, single point] | Potency [2]: active: 11.2 µM

COC(=O)C[C@H]1C(C)(C)[C@H](OC(=O)C(C)C)C2CC3=C4CC(=O)O[C@@H](c5ccoc5)[C@]4(C)CCC3[C@@]1(C)C2=O (some centres undefined)
Potency [1]: inconclusive: 10 µM [cytotoxic, single point] | Potency [2]: inconclusive: 10 µM [cytotoxic, single point]
